In all, about 110,000 compounds were measured (“z-score”: median about -0.1, highest 2% from about 2 on). Some of the results follow. Activity calls are given as the source filed them.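 How the source made its calls: active means z-score in the third read window above 3 or below -3; inactive means the rest.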

For the experiment, the target named is Metabotropic glutamate receptor 8 (Rattus norvegicus) (UniProt P70579). Put plainly: mGluR8 Gi/Go-coupled signaling modulation – cell-based, rat, thallium flux, HTS, primary screen (AID 488969). The following applies: HEK293 rat mGluR8, GIRK (G protein-gated inwardly rectifying potassium channel) thallium flux, FluoZin2; at 10 µM; stronger effect = higher value; submaximal glutamate (EC20) added with thallium.
Chain of UniProt P70579 (P70579 whole entry, looked up): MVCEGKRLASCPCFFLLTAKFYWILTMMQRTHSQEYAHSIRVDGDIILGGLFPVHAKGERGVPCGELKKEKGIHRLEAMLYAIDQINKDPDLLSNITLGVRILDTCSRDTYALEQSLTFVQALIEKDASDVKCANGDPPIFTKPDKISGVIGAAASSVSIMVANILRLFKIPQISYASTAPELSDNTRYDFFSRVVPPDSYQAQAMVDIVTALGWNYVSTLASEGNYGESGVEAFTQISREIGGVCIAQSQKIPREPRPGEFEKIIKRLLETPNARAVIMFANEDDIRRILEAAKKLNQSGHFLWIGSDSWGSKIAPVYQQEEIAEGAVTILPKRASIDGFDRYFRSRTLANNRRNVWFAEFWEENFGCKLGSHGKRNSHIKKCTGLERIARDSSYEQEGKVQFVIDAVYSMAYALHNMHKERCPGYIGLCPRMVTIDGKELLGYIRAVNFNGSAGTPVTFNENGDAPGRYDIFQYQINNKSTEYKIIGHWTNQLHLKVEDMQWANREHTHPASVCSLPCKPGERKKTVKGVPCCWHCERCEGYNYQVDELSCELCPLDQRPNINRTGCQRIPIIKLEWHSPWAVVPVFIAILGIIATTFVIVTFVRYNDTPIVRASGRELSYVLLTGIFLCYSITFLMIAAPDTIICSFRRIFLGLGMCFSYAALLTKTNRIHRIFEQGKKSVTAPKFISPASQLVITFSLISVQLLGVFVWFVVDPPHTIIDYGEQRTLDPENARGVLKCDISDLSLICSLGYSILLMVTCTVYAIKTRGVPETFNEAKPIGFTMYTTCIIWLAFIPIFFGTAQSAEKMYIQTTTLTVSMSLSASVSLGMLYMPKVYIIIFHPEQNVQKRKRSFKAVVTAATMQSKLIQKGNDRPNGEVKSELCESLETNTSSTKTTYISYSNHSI
The compound `CCOC(=O)c1sc2nc(CC(=O)OC)nc(NCCN(CC)CC)c2c1C` returned a z-score of 0.798. As for `CCC(C)(C)NC(=O)c1ccc(Sc2nncn2C)c([N+](=O)[O-])c1`, the z-score was -0.281. In the case of `CCOC(=O)C1CCN(C(=O)C(=O)N2CCC(C(=O)OCC)CC2)CC1`, the z-score is -0.854.

Turning to `CC(C)Sc1nnc(CNC(=O)C23CC4CC(CC(C4)C2)C3)n1C1CCCCC1`, the z-score is -0.462.

Take `COc1ccc(C2(CNC(=O)/C=C/c3ccco3)CCCC2)cc1OC`: the z-score is -0.281.

Consider `O=C(CCSc1ccccc1)Nc1nc2c(s1)CCCC2`, for which the z-score was -0.0634. The same measure for `CC1=C(C(=O)Nc2ccccc2)C(c2ccc(C(C)C)cc2)N2C(=O)CSC2=N1` (stereo not given): -0.311. In turn, `CCc1nnc(NC(=O)c2ccc3c(c2)C(=O)N(C(C)(C)C)C3=O)s1` returned a z-score of 0.0532. Compound `CCOC(=O)C(NC(C)=O)(Nc1ccc(S(=O)(=O)Nc2cc(C)on2)cc1)C(F)(F)F` (stereo not given) came in with a z-score of 0.128. `CS(=O)(=O)N1CCC(C(=O)Nc2ccccc2F)CC1` displayed a z-score of -0.337.

`Cc1c(Cl)cccc1NC(=O)NC1CCCCC1` returned a z-score of 0.337. The same measure for `CCCn1c(NCc2cccc(OC)c2OC)nc2ccccc21`: -0.349; for `O=S(=O)(c1cccs1)n1cccn1`: -0.325. For `Nc1nc(SCC(=O)NC2CCCC2)[nH]c(=O)c1-c1ccccc1`, the z-score was -0.603.

As for `O=C(Nn1cnnc1)c1ccccc1CCc1ccccc1`, the z-score was 0.0675. Consider `O=C(Nc1ccccc1)Nc1nccs1`, for which the z-score worked out at 1.3. In the case of `N#Cc1cccc(NC(=S)Nc2ccccc2)c1`, the z-score was 0.595. `COc1c2occc2c(OC)c2c(=O)cc(C(F)(F)F)oc12` displayed a z-score of 2.92. `Cc1n[nH]c(=O)n1-c1ccc(Oc2ccccc2)cc1` gave a z-score of -0.481. `CCSc1nnc2nc(C)cc(C)n12`: the z-score was -0.0279.

Regarding `O=C(CSc1nc(-c2ccccc2)cc(=O)[nH]1)N1CCc2ccccc21`, the z-score was active: 9.86. Compound `COc1cccc(NC(=O)C(OC(=O)c2ccccc2NS(=O)(=O)c2cccs2)c2ccccc2)c1` (stereo not given) gave a z-score of -0.172.

`c1ccc(-c2nc(NCCCn3ccnc3)c3oc4ccccc4c3n2)cc1` came in with a z-score of -0.0957. In turn, `CC(C)c1nnc(NC(=O)CCCCCN2C(=O)C3C4C=CC(C4)C3C2=O)s1` (stereo not given) displayed a z-score of -0.165. In turn, `CCn1ncc(C2=NOC(C(=O)NCC(C)C)C2)c1C` (stereo not given) gave a z-score of -0.21. The same measure for `Cc1cccc(C)c1NC(=O)CC1SC2=NCCN2C1=O` (stereo not given): 1.06. The same measure for `COC1=C(Nc2ccc(OC)cc2)C(=O)c2ccccc2C1=O`: -0.233; for `O=C(Oc1cccnc1)c1ccco1`: -0.0559; for `O=C(O)CCc1ccc(-c2cccs2)n1CCC(=O)O`: -0.221. For `CC(C)(C)C(=O)CNS(=O)(=O)c1ccc(S(=O)(=O)NC2CCCC2)cc1` the value was 0.0762; for `O=C(NCCC1=CCCCC1)C1CCN(S(=O)(=O)c2cccc3nonc23)CC1`, 0.225; for `Cc1ccccc1OCC(=O)NCCC(=O)O`, 0.0367. The compound `CCn1c(-c2cccs2)nc2ccccc21` yielded a z-score of -0.122. The compound `Cc1cc(OCc2nc(-c3cccs3)no2)cc(C)c1Cl` showed a z-score of 0.00195. The same measure for `Cc1ccc(C(=O)NC(=S)Nc2ccc(NC(=O)c3cccs3)cc2)cc1[N+](=O)[O-]`: -0.0512; for `COc1ccc(/C=N/NC(=O)CCN2CCN(c3ccccc3)CC2)c(OC)c1OC`: -0.366; for `CCCn1cc(NC(=O)C2CC(c3cccc(Br)c3)=NO2)cn1` (stereo not given): -0.352. For the compound `COc1ccc(-c2cc(C(F)(F)F)c3c(n2)sc2c(O)cc(=O)[nH]c23)c(OC)c1`, the z-score is active: 5.32. In turn, `COc1cccc(NC(=S)N2CCN(Cc3ccccc3)CC2)c1` registered a z-score of 0.0461.

Compound `COc1cccc(Nc2ncnc3ccccc23)c1` showed a z-score of -0.25. For `CN(C(=O)c1ccccc1Cl)C1CCCCC1`, the z-score amounted to 0.549. Compound `CCc1ccc(NC(=O)CSC2=C(C#N)C(c3ccco3)C3=C(CCCC3=O)N2)cc1` (stereo not given) showed a z-score of -1.16.

In turn, `CCc1ccccc1NC(=O)Cn1nc(C(F)(F)F)c2c1CCC2` yielded a z-score of 1.15. `CC1CCCC(C)N1C(=O)CN1CCN(c2nc(-c3ccc(F)cc3)cs2)CC1` (stereo not given) registered a z-score of -1.12.

In turn, `CC(=O)c1nn(-c2cccc(Br)c2)cc1C(=O)c1ccco1` came in with a z-score of 0.0966.

Turning to `C(=N\Nc1nc2ccccc2[nH]1)/c1c[nH]c2ccccc12`, the z-score is -0.588. For `Cc1cc(C)n(-c2c(F)c(F)c(CO)c(F)c2F)n1`, the z-score is -0.22.

Turning to `O=S(=O)(NC12CC3CC(CC(C3)C1)C2)c1ccc(F)cc1`, the z-score came out at 1.1.

Consider `C=CCn1c(SCc2ccc3nonc3c2)nnc1-c1cccs1`, for which the z-score was -0.249. As to `Cc1cc(C)c(S(=O)(=O)O)c(C)n1`, the z-score came out at 0.179. Turning to `COc1ccnc(Oc2ccc(F)cc2)c1C(=O)N/C=N/OCc1ccc(Cl)cc1Cl`, the z-score amounted to 0.11. For the compound `O=C(Cn1cnnn1)OCC(=O)c1ccc(Cl)s1`, the z-score was determined as 0.489. Consider `Nc1nc2n(n1)C(c1ccco1)CC(c1ccc(Cl)c(Cl)c1)N2` (stereo not given), for which the z-score was determined as 2.38.

In turn, `O=C(Nc1cccnc1)c1ccc(Cl)c(S(=O)(=O)N2CCCCCC2)c1` returned a z-score of -0.876. As to `COc1ccccc1C(=O)NNC(=S)NC(=O)c1ccco1`, the z-score is 1.4. Compound `C=CCOc1ccc(/C(CC)=N/O)cc1OC` returned a z-score of 0.241. In turn, `COc1ccc(NC(=O)c2cccnc2NCCc2ccccc2)cc1` gave a z-score of -0.101.

Take `CCOc1cc(C2C3=C(CCCC3=O)NC3=C2C(=O)CCC3)ccc1OCCO`: the z-score is -0.386. As for `O=c1cc(CSc2nc3ccccc3[nH]2)c2ccccc2[nH]1`, the z-score is -0.605.

On to `Cc1cccc(Oc2ncc(-c3ccc(Cl)cc3)cn2)c1C`, for which the z-score was determined as 0.014. Turning to `COc1ccc(C(=O)Nc2ccc3c(c2)nc2n3CCSC2)cc1`, the z-score was -0.443. Compound `COc1ccc(NC(=O)CN(C2CCCCC2)S(C)(=O)=O)cc1Cl` gave a z-score of -0.0869. Regarding `Cc1ccc(O)c(C=Nc2cc(C)ccc2O)c1`, the z-score is -0.107. With `CC(C)(C)c1ccc(C(=O)CS(=O)(=O)c2ccccc2)cc1`, the z-score worked out at 0.0407. `COc1cc(NC(=O)c2cc3nc(-c4ccccc4)cc(-c4ccccc4)n3n2)cc(OC)c1OC` displayed a z-score of -0.204.

Consider `CCCc1nnc2n1N=C(c1ccc(OC)c(OC)c1)CS2`, for which the z-score is active: -3.5. The compound `N#Cc1nc(Cc2ccccc2)oc1NCCCn1ccnc1` returned a z-score of -0.784. Compound `CC(C)CCn1c(Sc2nc3ccccc3s2)nc2c1c(=O)[nH]c(=O)n2C` had a z-score of 0.88. For the compound `Cc1cccc(-c2noc(CN(C(=O)c3ccc(Br)o3)C(C)C)n2)c1`, the z-score was -0.599. Compound `Cc1cccc2cc(C3CC(c4cccs4)=NN3C(=O)CCC(=O)O)c(Cl)nc12` (stereo not given) returned a z-score of -0.298. In turn, `COc1cccc(NC(=O)C(OC(=O)c2ccc([N+](=O)[O-])o2)c2ccccc2)c1` (stereo not given) returned a z-score of -0.8.

In the case of `CS(=O)(=O)N(CC(=O)N1CCN(c2ccccc2F)CC1)c1cc(C(F)(F)F)ccc1Cl`, the z-score was found to be 0.422.

`O=S(=O)(c1ccc2oc3ccc(S(=O)(=O)N4CCCCC4)cc3c2c1)N1CCCCC1`: the z-score is -0.437.

`Cc1nnc(NC(=O)c2c(F)c(F)c(F)c(F)c2F)s1` yielded a z-score of -0.26. In turn, `COc1ccccc1CSc1nc2ccccc2[nH]1` came in with a z-score of -0.12. In the case of `c1cncc(-c2nnc(-c3ccco3)o2)c1`, the z-score was -0.101.

The compound `COc1cc(C2C(N3C(=O)c4ccccc4C3=O)C(=O)N2c2ccc(C)c(C)c2)cc(OC)c1OC` (stereo not given) yielded a z-score of 0.503.

In turn, `CCOc1ccc(NC(=O)CSc2nnc(C)n2CC2CCCO2)cc1` (stereo not given) showed a z-score of -0.429.

`C=CCNc1nnc(Cl)c2ccccc12` showed a z-score of 0.165. For `O=c1c(-c2nnc(SCc3ccc(Cl)cc3)o2)cccn1Cc1ccccc1`, the z-score stood at 0.618.

For `O=C(CCn1nnc(-c2cccs2)n1)NCc1ccccc1Cl`, the z-score was -0.126. In turn, `CC1CCCC(NC2CCCCNC2=O)C1` (stereo not given) registered a z-score of 0.454. The compound `COc1ccc(-c2nn(C)c(=O)c3ccccc23)cc1CNC(=O)CN1CCOCC1` returned a z-score of 0.293. `CC(=O)Nc1cc(-c2nn(C)c(=O)c3ccccc23)ccc1N1CCOCC1` came in with a z-score of -0.149. Consider `COc1ccc(NC(=O)Cn2c(=O)n(CC(=O)NCc3ccco3)c(=O)c3ccccc32)cc1OC`, for which the z-score was -0.0297. `COc1cc(C(=O)N2CCN(S(=O)(=O)c3ccc(F)cc3)CC2)cc(OC)c1OC` returned a z-score of -0.0276. `COc1ccc(CNC(N)=O)cc1` displayed a z-score of 0.189. Consider `CCOc1nc(N2CCCCC2)nc(-n2cc(-c3ccccc3)nn2)n1`, for which the z-score is -0.0557.

In turn, `CCN(CC)C(=S)SCC(=O)c1ccc(F)cc1` registered a z-score of -0.176. Take `CC(C)(C)NCc1ccccc1OCc1cccs1`: the z-score came out at 0.423. The compound `CCN(CC)C(=O)C(C)OC(=O)COc1ccc(Cl)cc1Cl` (stereo not given) showed a z-score of -0.176. The compound `COc1ccc(S(=O)(=O)N(C)CC(=O)Nc2ccc3c(c2)OCO3)cc1OC` registered a z-score of 1.01.

Consider `CC(=O)Nc1cccc(Oc2ccc(-c3noc(C)n3)cc2)c1`, for which the z-score was determined as 0.194. Regarding `O=C1CCCC2=C1C(c1cccs1)n1nc(SCc3ccccc3F)nc1N2` (stereo not given), the z-score is -1.01. In turn, `Cc1cc(Nc2ccccc2)nn1C(=O)c1ccc([N+](=O)[O-])cc1` had a z-score of -0.0254. The compound `CC1CCCN(c2nc3c(c(=O)[nH]c(=O)n3C)n2Cc2ccccc2Cl)C1` (stereo not given) gave a z-score of -0.901. For `CC(C)OC(=O)C(C)Oc1ccc(C(=O)NCCc2ccccc2)cc1` (stereo not given) the value was -0.245; for `COC(=O)c1ccc(Oc2cc(C)nc(SC)n2)cc1`, -0.268; for `Cc1ccccc1NC(=O)NCC1CCCO1` (stereo not given), 0.73. The same measure for `O=C(Nc1ccc(Cl)cn1)C1CCCN1S(=O)(=O)c1ccccc1` (stereo not given): -0.315.

In turn, `O=C(NCc1cccnc1)C1CCCN(S(=O)(=O)c2ccc(Br)cc2)C1` (stereo not given) came in with a z-score of 0.0175. `O=C(c1ccccc1)c1cc(F)c(N2CCOCC2)cc1Cl`: the z-score turned out to be 0.155. On to `COc1ccc(NC(=O)CS(=O)CC(=O)NC2CCCc3ccccc32)cc1` (stereo not given), for which the z-score was -0.738. On to `CCOc1ccc(CNc2ncnc(N)n2)cc1`, for which the z-score is -0.398. The compound `CCOC(=O)NN1C(=O)c2ccccc2NC1c1ccc(OC)cc1` (stereo not given) displayed a z-score of -0.117.

For the compound `CCCC(=O)Nc1ccc(Cl)c(NC(=O)c2ccc([N+](=O)[O-])cc2Cl)c1`, the z-score is 0.901. `O=c1ccccn1Cc1c(F)cccc1Cl` displayed a z-score of 0.266. `CCOc1ccc(Nc2nc(NCCN3CCOCC3)nc(OC)n2)cc1` returned a z-score of -0.361.

As for `O=[N+]([O-])c1ccccc1-c1cc(-c2ccccc2O)n[nH]1`, the z-score was -0.676. Compound `O=C(C1CCC1)N1CCc2cc(S(=O)(=O)Nc3ccc4c(c3)OCO4)ccc21` showed a z-score of 0.0416.

`CC(C)c1ccc(OCC(=O)NCc2ccco2)cc1`: the z-score was -0.351.

Regarding `O=c1[nH]nc(Cc2ccc(Cl)cc2)c2ccccc12`, the z-score worked out at 0.0846. The same measure for `CCC(=O)Nc1cccc(NC(=O)CSc2nnnn2Cc2ccccc2)c1`: -0.547. As to `Cc1ccc(C(c2nnnn2C2CCCCC2)N2CCc3ccccc32)cc1` (stereo not given), the z-score is -0.876.

For the compound `CCCCCCCOC(=O)C1=C(C)Nc2ncnn2C1c1cccs1` (stereo not given), the z-score was -0.256.

For the origin of these results see PubChem BioAssay AID488969 (Vanderbilt High Throughput Screening Facility, 2010).
